Here are results for six molecules from PubChem BioAssay (NCATS).

The list shows a part of the results. These are further read-outs of the screen, such as a control signal, another cell line or another target. No call is given for them. For some assays here: Compounds called inactive in the main read-out are mostly missing here. Words in brackets tell the shape of the fitted curve; partial curves, single points and poor fits give uncertain potencies.

What is called AC50 is the midpoint of the concentration-response curve, whichever way the signal moves.

Test [1] is described as follows: qHTS Assay for Lipid Storage Modulators (AID 1519). The settings on record: Drosophila S3 cells, BODIPY lipid droplet/cell ratio, laser cytometry, cells loaded with oleic acid. The essentials:
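Cells seeded at 5,000 per well were treated with compounds over a concentration series and loaded with oleic acid (400 uM, as added). Lipid droplet fluorescence (488 nm excitation, 500-530 nm channel) was read by laser-scanning cytometry and normalized to 20 uM Triacsin C.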

Test [2] in a line: A High-Content qHTS Against Drug Library for the Identification of Small Molecules that Inhibit DYT1 Early Onset Primary Dystonia-Associated Cell Pathology (AID 1645839). The settings on record: HEK293 Flp-In EGFP-delE TorsinA, punctate imaging, 48 h; measured here: cell count cytotoxicity. In a few lines: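 In this high-content image screen, delE TorsinA mislocalization in inducible Flp-In 293 cells is scored as %pathology, with cell count serving as the counterscreen. Compound exposure lasts 48 h under tetracycline induction in reduced-serum medium.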
For orientation: qHTS replaces the single test concentration by a dilution series.

Test [3] can be described thus: qHTS drug screen for cell cycle checkpoint inhibitors in PARPi-resistant BRCA-mutant ovarian cancer cell lines. (AID 1963452). The settings on record: PEO1/OlaR viability, CellTiter-Glo luminescence, 96 h. The essentials:
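PEO1, PEO4 and PEO1/OlaR ovarian cancer cells, 600 per well, exposed 96 h at 37C to a dilution series. Viability read by CellTiter-Glo luminescence, normalized to DMSO and empty wells; activity summarized as Z-AUC.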

A short description of test [4]: qHTS for identification of novel therapeutic agents for treatment of microphthalmiaassociated transcription factor (MiT) renal cell carcinoma (RCC) (AID 1963991). Conditions: CellTiter-Glo, 48 h; for z-score: stronger effect = lower value. The essentials: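 Curves over 11 concentrations were fitted to CellTiter-Glo luminescence, scaled between empty wells (0%) and DMSO (100%) viability. Cells were UOK109, UOK124 and UOK145 TFE3-fusion RCC lines at 500/well, exposed 48 hours at 37 C.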

The mark [5] stands for this setting: measured here: cell count channel max response.
[6] abbreviates: measured here: cell number channel AC50.
Setting [7] is: measured here: lipid (BODIPY) channel AC50.
Setting [8] is: measured here: lipid channel max response.
Tags describe the fitted curve by direction and shape.

Take `O=C1NCN(c2ccccc2)C12CCN(CCCOc1ccc(F)cc1)CC2`: the max response turned out to be 31.5% in test [1] (setting [5]) and 35.8% in test [1] (setting [8]). Also, the AC50 in test [1] (setting [6]) is 39.8 µM [rising, single point]; in test [1] (setting [7]), 14.1 µM [rising, single point]; in test [2], 7.08 µM [falling, partial curve, poor fit].
With `COc1ccc(C(=O)c2c(C)n(CCN3CCOCC3)c3cc(I)ccc23)cc1`, the max response turned out to be 61.1% in test [1] (setting [5]) and 76.4% in test [1] (setting [8]). Also, the AC50 in test [1] (setting [6]) is 0.562 µM [rising, full curve]; in test [1] (setting [7]) it was 0.501 µM [rising, full curve]; in test [3] (measured here: PEO1 parental viability) it was 9.77 µM [falling, partial curve]; in test [3] (measured here: PEO4 viability), 12.3 µM [falling, partial curve]; in test [4] (TFE3-RCC viability, measured here: UOK124 cell viability) it was 37.2 µM [falling, single point]; in test [4] (TFE3-RCC viability, measured here: UOK145 cell viability), 20.9 µM [falling, single point]. Further, the z-score came out at 0.422 in test [4] (TFE3-RCC UOK109 viability, measured here: UOK109 Z-AUC); 0.566 in test [4] (TFE3-RCC viability, measured here: UOK124 Z-AUC); 0.41 in test [4] (TFE3-RCC viability, measured here: UOK145 Z-AUC).
On to `CC(=O)c1c(O)c(C)c(O)c(Cc2c(O)c3c(c(C(=O)/C=C\c4ccccc4)c2O)OC(C)(C)C=C3)c1O`, for which the figures for the max response in test [1] (setting [5]) and in test [1] (setting [8]) were 99.2% and 132%, respectively. For the same molecule, the AC50 in test [1] (setting [6]) was 2.82 µM [rising, full curve, poor fit]; in test [1] (setting [7]), 2.82 µM [rising, full curve, poor fit].
For `C=C(C)CN1CC[C@@]23c4c5ccc(O)c4O[C@H]2c2[nH]c4ccccc4c2C[C@]3(O)[C@@H]1C5`, the max response in test [1] (setting [5]) stood at 45.2%; in test [1] (setting [8]) it was 45.1%. For the same molecule, the AC50 in test [1] (setting [6]) is 39.8 µM [rising, single point]; in test [1] (setting [7]), 20 µM [rising, single point].
As to `C[C@H](N)Cc1c[nH]c2ccc(OCc3cccs3)cc12`, the results for the max response in test [1] (setting [5]) and in test [1] (setting [8]) were 92.8% and 121%, respectively. Further, the AC50 in test [1] (setting [6]) is 28.2 µM [rising, partial curve, poor fit]; in test [1] (setting [7]), 25.1 µM [rising, partial curve].
As for `O=C1Nc2cc(Cl)c(Cl)cc2N2CCNC[C@H]12`, the max response in test [1] (setting [5]) was found to be 79.5%; in test [1] (setting [8]), 101%. For the same molecule, the AC50 in test [1] (setting [6]) was 28.2 µM [rising, partial curve, poor fit]; in test [1] (setting [7]) it was 25.1 µM [rising, partial curve, poor fit].
